Source: PubChem BioAssay AID686978 (National Center for Advancing Translational Sciences (NCATS), 2013)
In all, about 420,000 compounds went through this assay and about 64,000 (15%) were called active. The inconclusive results got no clear call from the source; some entries with a clear call stand among them for comparison. The call rests on the fitted dose curve; in most records, active means well fitted inhibition curve with a large enough effect; inconclusive means small, poorly fitted or top-dose-only effect; inactive means flat fitted curve, though single readings scatter. No potency is given beside an inconclusive call; the fits are too rough.

experiment: qHTS for Inhibitors of human tyrosyl-DNA phosphodiesterase 1 (TDP1): qHTS in cells in absence of CPT; conditions: DT40 Tdp1-/- hTDP1 cells, no CPT, ATP luminescence, 48 h; activity change, negative = growth inhibition: at 46.2 µM (top of the series) unless noted; further: nearly all actives have a fitted effect of over 55% in size
Method in brief: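 Camptothecin absent (DMSO only). Human TDP1-complemented DT40 knockout cells, 400 cells/well, 37 °C for minimum 48 hr; ATP measured via CellTiter-Glo, 30 min dark incubation, luminescence.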
On the % scale 0 is the no-effect control and ±100 the full control effect; potency means the concentration at half of the fitted maximal effect; tags describe the fitted curve by direction and shape.

Question: Which Potency does the source give for COc1cccc(CNC(=O)c2ccccc2NC(=O)C2=C(C)OCCS2)c1OC here?
Answer: active: 11.6 µM

Question: For Cc1ccccc1NC(=O)c1ccc(CN(c2ccccc2)S(=O)(=O)c2ccccc2)cc1, which Potency is on record?
Answer: inconclusive [inhibitor, single point]

Question: For CCNc1nc(NC#N)nc(SCC(=O)OCC)n1, which Potency is on record?
Answer: inactive

Question: For COc1ccc(NC(=O)C2C(c3ccccc3)C2(Cl)Cl)cc1 (stereo not drawn), which Potency is on record?
Answer: inconclusive [inhibitor, partial curve, poor fit]

Question: With COc1cc(OC)cc(-c2cc3nc(C)c(CCC(=O)Nc4nc(C)cs4)c(C)n3n2)c1 as the molecule, how does the Potency read?
Answer: active: 10.3 µM

Question: With CC(=O)c1ccc(S(=O)(=O)N2CCn3cccc3C2c2ccc(C)cc2)cc1 (stereo not drawn) as the molecule, how does the Potency read?
Answer: inconclusive [inhibitor, single point]

Question: Which Potency does the source give for CN(c1cccc(NC(=O)c2ccc(N(C)S(=O)(=O)c3ccccc3)cc2)c1)S(C)(=O)=O here?
Answer: inconclusive [inhibitor, single point]

Question: For C=CCNC(=O)c1c(Br)cnn1-c1ccc(C)cc1, which Potency is on record?
Answer: inactive

Question: Which Potency does the source give for COc1ccc(Cl)cc1NC(=O)Cc1ccc(NC(=O)N2CCCCc3ccccc32)cc1 here?
Answer: active: 20.6 µM

Question: For O=C(CSc1ncnc2sc3c(c12)CCCC3)c1ccccc1, which Potency is on record?
Answer: inconclusive [inhibitor, single point]

Question: Which Potency does the source give for CCOC(=O)C1=C(c2ccccc2)NC(=O)NC1c1cccc(OC)c1OC (stereo not drawn) here?
Answer: inconclusive [inhibitor, partial curve]

Question: With CN1CCC(N(C)C(=O)c2cc(-c3ccc(F)cc3)nc3ccccc23)CC1 as the molecule, how does the Potency read?
Answer: inconclusive [inhibitor, single point]

Question: For O/N=C1\CC/C(=N\O)c2nn(-c3ccc(Cl)cc3Cl)nc21, which Potency is on record?
Answer: inconclusive [inhibitor, partial curve]

Question: With O=C(Nc1cccnc1)c1ccc(-c2ccccc2)cc1 as the molecule, how does the Potency read?
Answer: inconclusive [inhibitor, single point]

Question: Which Potency does the source give for Cc1cc(C(=O)NCc2ccc(F)cc2)n(-c2ccccc2)n1 here?
Answer: inactive

Question: For Cc1onc(-c2ccccc2Cl)c1C(=O)Nc1cccc2cccnc12, which Potency is on record?
Answer: active: 4.11 µM

Question: Which Potency does the source give for COc1ccccc1CN(C)CC(=O)NC(=O)NC1CCCCC1 here?
Answer: inactive

Question: For COc1ccccc1NC(=O)C(=O)NCC(c1ccc2c(c1)OCO2)N1CCOCC1 (stereo not drawn), which Potency is on record?
Answer: inconclusive [inhibitor, single point]

Question: Which Potency does the source give for Cc1ccc(O)c(NC(=S)NC(=O)Cc2ccc(Cl)cc2)c1 here?
Answer: inconclusive [inhibitor, single point]

Question: With Cc1cccc(N/C=C(\[N+](=O)[O-])S(=O)(=O)c2ccccc2)c1 as the molecule, how does the Potency read?
Answer: inconclusive [inhibitor, single point]

Question: With COC(=O)c1cc(=O)c2ccc(OC)cc2o1 as the molecule, how does the Potency read?
Answer: inactive

Question: Which Potency does the source give for Cc1ccc(CNC(=O)C2CCC(=O)N(CCc3ccccn3)C2)s1 (stereo not drawn) here?
Answer: inactive

Question: Which Potency does the source give for O=C(CC(Sc1ccccc1)c1cccs1)c1ccco1 (stereo not drawn) here?
Answer: active: 25.9 µM

Question: For Cc1onc(-c2ccccc2)c1C(=O)OCc1nnc(-c2ccc([N+](=O)[O-])cc2)o1, which Potency is on record?
Answer: inconclusive [inhibitor, single point]

Question: Which Potency does the source give for COc1ccc(/C=N/NC(=O)c2c(-c3ccccc3)noc2C)cc1 here?
Answer: inactive

Question: For COc1cc(N(CCCn2cnc3c(SC)ncnc32)CCCn2cnc3c(SC)ncnc32)cc(OC)c1OC, which Potency is on record?
Answer: inconclusive [inhibitor, single point]

Question: With CCn1c(C)c(C2N3CC4(C)CN2CC(C)(C3)C4=O)c2ccccc21 (stereo not drawn) as the molecule, how does the Potency read?
Answer: inactive

Question: With COc1ccccc1NC(=O)c1cnc(SCC(=O)NCC2CCCO2)n(C)c1=O (stereo not drawn) as the molecule, how does the Potency read?
Answer: inconclusive [inhibitor, partial curve, poor fit]

Question: With COc1ccc(N2CCN(C(=O)c3ccc(C)cc3)CC2)c([N+](=O)[O-])c1 as the molecule, how does the Potency read?
Answer: inconclusive [inhibitor, single point]

Question: With CCc1nnc(NC(=O)CSc2nccn2-c2ccc(OC)cc2)s1 as the molecule, how does the Potency read?
Answer: inactive

Question: For CCOC(=O)c1c(NC(=O)c2ccncc2)sc(C)c1C, which Potency is on record?
Answer: inconclusive [inhibitor, single point]

Question: Which Potency does the source give for N#Cc1c2n(c3c(-c4ccccc4)ncnc13)CCC2 here?
Answer: inconclusive [inhibitor, single point]

Question: With COc1ccc(-c2cn3cc(C)ccc3n2)cc1OC as the molecule, how does the Potency read?
Answer: inconclusive [inhibitor, partial curve]

Question: With CCC(C)(C)n1nnnc1C(c1ccc(O)cc1)N1CCc2ccccc2C1 (stereo not drawn) as the molecule, how does the Potency read?
Answer: inactive

Question: With Oc1ccccc1-c1cc(C(F)(F)F)nc(-c2ccccc2)n1 as the molecule, how does the Potency read?
Answer: inconclusive [inhibitor, partial curve]

Question: Which Potency does the source give for CC[C@]12C(=O)N(C)C[C@H]([C@@H]3C(=O)N(Cc4ccccc4)C(=O)[C@@H]31)N2C(=O)c1ccc(Br)cc1 here?
Answer: inactive

Question: For COc1cc(CCCN2C(=S)NC[C@@H]2c2ccccc2)cc(OC)c1OC, which Potency is on record?
Answer: active: 16.4 µM

Question: For CC(C)Oc1ccc(C(=O)NC2CCSc3ccccc32)cc1 (stereo not drawn), which Potency is on record?
Answer: inconclusive [inhibitor, single point]

Question: For O=C(COC(=O)c1ccc(Cl)c([N+](=O)[O-])c1)Nc1ccccc1OC(F)F, which Potency is on record?
Answer: inactive

Question: For COc1ccccc1NC(=O)c1ccc(-c2ccccc2F)o1, which Potency is on record?
Answer: inconclusive [inhibitor, single point]

Question: Which Potency does the source give for COC(=O)C1=C(C(=O)OC)[C@@H]2N(Cc3ccccc3)c3ccccc3[C@@]23C[C@@H](C(=O)OC)N(C(=O)C2CCC2)C3=N1 here?
Answer: inactive

Question: For COc1cc(CNCc2ccccc2)c(Br)cc1OC1CCCC1, which Potency is on record?
Answer: inconclusive [inhibitor, single point]

Question: Which Potency does the source give for C=CCn1c(SCc2ccc(Cl)cc2)nc2cc(C(=O)N3CCC(C(N)=O)CC3)ccc2c1=O here?
Answer: inconclusive [inhibitor, single point]

Question: For CC(NC(=O)C1CCC(=O)N1Cc1ccc(F)cc1)c1ccc2c(c1)OCCO2 (stereo not drawn), which Potency is on record?
Answer: inactive

Question: With COCCNc1ccc([N+](=O)[O-])cc1C(=O)Nc1cccc(C)n1 as the molecule, how does the Potency read?
Answer: inconclusive [inhibitor, single point]

Question: For CCOC(=O)c1sc2nc(SCC#N)n(CC3CCCO3)c(=O)c2c1C (stereo not drawn), which Potency is on record?
Answer: inconclusive [inhibitor, single point]

Question: With O=C(Nc1ccc(NC(=O)C2CC2)nc1)c1ccccc1F as the molecule, how does the Potency read?
Answer: inactive

Question: With N/C(=N/O)c1ccccc1N1CCC(Cc2ccccc2)CC1 as the molecule, how does the Potency read?
Answer: active: 14.6 µM

Question: With Cc1ccc2c(NCc3ccco3)nc(NC(C)C)nc2c1 as the molecule, how does the Potency read?
Answer: inconclusive [inhibitor, single point]

Question: With O=S(=O)(N1CCOCC1)N1CCOCC1 as the molecule, how does the Potency read?
Answer: inactive

Question: For N/C(Cc1ccc(Cl)cc1)=N\OC(=O)CCc1ccccc1, which activity change, negative = growth inhibition is on record?
Answer: inconclusive: -30.4% [inhibitor]

Question: With Cc1nc(C)c(-c2ccc(SCC(=O)Nc3ccc(Br)cc3)nn2)s1 as the molecule, how does the Potency read?
Answer: inconclusive [inhibitor, single point]

Question: For O=C(Nc1ccc2oc(-c3ccccc3)nc2c1)c1cccs1, which Potency is on record?
Answer: inconclusive [inhibitor, partial curve, poor fit]

Question: For COc1ccc(C)cc1NC(=O)CSc1ccc(-c2ccco2)nn1, which Potency is on record?
Answer: inconclusive [inhibitor, partial curve]

Question: For C/C(=N\NC(=O)c1ccccc1O)c1ccc(Br)s1, which Potency is on record?
Answer: inconclusive [inhibitor, partial curve, poor fit]

Question: Which Potency does the source give for Cc1c(Br)c([N+](=O)[O-])nn1CC(=O)NCc1ccccc1 here?
Answer: inconclusive [inhibitor, single point]

Question: With CCCCCCC1CC(CC(=O)Nc2ccc([N+](=O)[O-])cc2)C(=O)O1 (stereo not drawn) as the molecule, how does the Potency read?
Answer: inconclusive [inhibitor, single point]

Question: With CNC(=O)CCn1nc(-c2ccccc2)c2ccccc2c1=O as the molecule, how does the Potency read?
Answer: inconclusive [inhibitor, single point]

Question: For COc1cc(/C=C\C(=O)NCc2ccc3c(c2)cc(C)n3C)cc(OC)c1OC, which Potency is on record?
Answer: active: 25.9 µM

Question: For CCSC1=NC2(CCCCC2)Nc2sc3c(c21)CCCC3, which Potency is on record?
Answer: inconclusive [inhibitor, single point]

Question: For CC1CN(C(=O)CCc2ccccc2)C(C)CN1C(=O)CCc1ccccc1 (stereo not drawn), which Potency is on record?
Answer: active: 23.1 µM

Question: With Cc1ccc(C)c(CN2C(=O)c3ccccc3S(=O)(=O)c3ccc(C(=O)N(C)C4CCCCC4)cc32)c1 as the molecule, how does the Potency read?
Answer: active: 20.6 µM

Question: With Fc1cc(Cl)cc2ccc(-c3ccccc3)nc12 as the molecule, how does the Potency read?
Answer: inactive

Question: For CC(C)(C)n1nnnc1C(c1ccc(C(F)(F)F)cc1)N(Cc1ccccc1)Cc1ccco1 (stereo not drawn), which Potency is on record?
Answer: inconclusive [inhibitor, single point]

Question: Which Potency does the source give for Cc1ccc2[nH]c3c(c2c1)CN(C(=O)CN1CCN(Cc2ccc4c(c2)OCO4)CC1)CC3 here?
Answer: inconclusive [inhibitor, single point]

Question: For O=C(NC(=S)Nc1ccccc1Cl)c1cnn2c(C(F)(F)F)cc(C(F)(F)F)nc12, which Potency is on record?
Answer: inconclusive [inhibitor, single point]

Question: For CCOC(=O)c1c(S(=O)(=O)NCC(=O)Nc2ccc(F)cc2F)c(C)n(C)c1C, which Potency is on record?
Answer: inactive

Question: For CCN(CC)S(=O)(=O)c1ccc(N2CCOCC2)c(NC(=O)C2CCCO2)c1 (stereo not drawn), which Potency is on record?
Answer: inactive

Question: With Cc1ccc(/C=C/c2onc(C)c2S(=O)(=O)N2CCC(C(=O)Nc3ccc(C)c(N(C)C)c3)CC2)cc1 as the molecule, how does the Potency read?
Answer: active: 9.2 µM

Question: Which Potency does the source give for CC(Sc1nc2ccccc2c(=O)n1C)C(=O)Nc1ccc2c(c1)OCCO2 (stereo not drawn) here?
Answer: active: 4.11 µM

Question: For Cc1nn(-c2ccccc2)c(OC(=O)C(C)C)c1Sc1ccc(Cl)cc1, which Potency is on record?
Answer: active: 10.3 µM

Question: Which Potency does the source give for Cc1ccc(S(=O)(=O)NNC(=O)CCC(=O)Nc2ccccc2Cl)cc1 here?
Answer: inactive

Question: With Cc1ccc(CNC(=O)CCCCCn2c(=O)[nH]c3ccccc3c2=O)cc1 as the molecule, how does the Potency read?
Answer: active: 0.82 µM
